The values below come from PubChem BioAssay (NCI).

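Grown in 96-well plates, cells were treated for 48 hours with each compound at five concentrations. Insufficient inhibition: endpoint recorded as highest concentration tested. Here, GI50 denotes the concentration required for 50% inhibition of growth. Definition used: TGI = concentration required for complete inhibition of growth.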

This assay concerns NCI-H322M lung. Nature of the assay: growth of human tumour cells (NCI), 48 h.
In the case of `O=C1C=CC(=CC=C2N(Cc3ccc4ccccc4c3)c3ccccc3N2Cc2ccc3ccccc3c2)C=C1`, the GI50 is 2.42 µM and the TGI is over 23.9 µM.
The corresponding values for `N#C/C(=C1/C(=O)Nc2ccccc21)c1nnc(NC(=O)c2ccc(-n3c(=O)[nH]c4ccccc4c3=O)cc2)s1` are 60 µM and over 100 µM.
The corresponding values for `CCCn1cc(-c2nc(Nc3ccc(C(=O)NCCCCNc4cccc5c4C(=O)N(C4CCC(=O)NC4=O)C5=O)cc3)nc3[nH]ccc23)cn1` (stereo not drawn) are under 0.01 µM and over 100 µM.
The corresponding values for `O=C(N/N=C/c1ccc(-c2ccc(O)cc2)s1)c1[nH]c2ccc(Br)cc2c1-c1ccccc1` are 5.18 µM and 17.9 µM.
